# Laboratory results taken from the supplement of paper PMC3334620.
# The full ranking holds about 33,000 sequences; the median of “E-score (-0.5 to 0.5)” is about -0.016, and the highest 2% start at about 0.31. This is one part of the list.
# Target: Cst6 (UniProt P40535)
# Assay: PBM E-score (8-mer binding enrichment) (E-score (-0.5 to 0.5)); higher = stronger / more preferred TF binding; most listed sequences are background and not binding sites
# Details: protein concentration: 200 nM; construct: GST-DNA-binding domain
# Procedure, shortened: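 Detection of bound protein used fluorescent anti-GST, with scans normalised by masliner. The proteins were GST-tagged yeast transcription factors applied at about 100-200 nM to universal all-10-mer Agilent arrays made double-stranded by primer extension. Each ungapped eight-base word, pooled with its reverse complement, was scored with an E-score from the Universal PBM Analysis Suite.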
row,Sequence,PBM E-score
1,ACTTATAG,0.0302
2,AAGCGAGT,0.0165
3,ATTAAAAG,0.173
4,ATAAAGAC,0.0641
5,ATCCGCTC,-0.218
6,AAACGCGA,0.0976
7,GTCGCGTA,0.19
8,ATCGCCAT,0.0296
9,CATCTTGG,-0.0575
10,CATCGGCA,0.0521
11,AGTGATAT,0.0988
12,CGAAGTAC,-0.106
13,GAAGGGGC,-0.202
14,TGAGAACA,0.145
15,GGATTACA,-0.0128
16,ACACACAC,0.0991
17,CGAGAATA,0.213
18,AAGGACCA,-0.2
19,ATATCGCA,-0.0175
20,AGCGGGAT,0.0274
21,CAGTATCC,-0.0801
22,CGGATAAC,0.0481
23,GAACCGAC,-0.0852
24,GGGCGCAC,-0.214
25,CTCCCTAC,-0.0597

row,Sequence,PBM E-score
1,CGTGGTCA,-0.0643
2,ATAAAATG,0.225
3,ACTCTGGC,-0.255
4,AATATTAC,0.241
5,AGAGTCAT,-0.0245
6,GCGCGTTA,0.0245
7,AGCGTCAA,0.269
8,ATTGACGC,0.265
9,ACTTCGAA,0.164
10,ACCCCCAC,-0.417
11,TAAGGGGA,-0.132
12,ATAACAAT,0.129
13,ATCATCGG,-0.00365
14,GGAAGAGA,-0.106
15,CCGCCAGC,-0.295
16,GAACGTCA,0.442
17,CGGTATTA,0.0433
18,ACAGATGG,-0.112
19,AGGATGAC,0.208
20,ATGGTCGA,-0.154
21,ACACGTGT,0.197
22,GGAGACTA,-0.167
23,ATTTCATG,0.00873
24,GATATGGC,-0.193
25,CCGGGAGG,-0.318

row,Sequence,PBM E-score
1,CGAAATGA,0.146
2,CAGAAGGC,-0.0565
3,CTGTTGGA,-0.104
4,AGACAGAA,0.0723
5,ATTGAGTA,0.294
6,GTCTGCAC,-0.266
7,AGCTTAAG,-0.12
8,AAAGAGCC,0.0135
9,ATGGCCTG,-0.277
10,CTTTGCTC,-0.0358
11,TAGCTGAA,-0.0877
12,TACACTAA,-0.00434
13,ACATCACG,0.303
14,ACCGCCCC,-0.205
15,ATGAGATG,0.0721
16,CCCCGCTC,-0.373
17,ACGGTCCA,-0.232
18,CGATCAAC,-0.105
19,GCTATATA,0.167
20,GGGTTTGA,0.0409
21,ATTTCGGA,0.15
22,GTGTGTCA,0.248
23,GGACACGA,-0.176
24,CATCAGAA,0.253
25,GAAACCCC,-0.173

row,Sequence,PBM E-score
1,AGGGCTGC,-0.252
2,CAGTCCTA,-0.19
3,CAGCGATG,-0.0664
4,GAGTTGAC,0.0187
5,GAGCCAAC,-0.041
6,ACCGGACT,-0.246
7,AACTAGGC,-0.0131
8,CGCTTCCG,-0.171
9,AGTTCCCG,-0.205
10,AGCAAGAA,0.0528
11,CGATAATC,-0.16
12,ACGTCACC,0.496
13,GTGGGACA,-0.205
14,CAAGTCCC,-0.288
15,GACCGTAC,-0.161
16,CACTGAAA,0.185
17,ATGTCCAC,0.0293
18,ATCCTATA,0.124
19,AGTCGCTA,-0.26
20,CATAGCCA,0.025
21,CTAGGCCC,-0.384
22,AGCGGGTG,-0.165
23,GATTACAC,0.171
24,GCAAGGGA,-0.235
25,ACCTTCAC,-0.0918

row,Sequence,PBM E-score
1,ATATTATC,0.262
2,CCACGGAC,-0.344
3,CGAGCCAA,0.00297
4,AGCGAGCA,-0.169
5,GTCGCCTA,-0.0534
6,AGGTATTC,0.0784
7,AATACGCA,0.124
8,ACGCGGGC,0.0213
9,ACACCAGG,-0.21
10,AAATCAAC,-0.0292
11,CTCGCTCC,-0.0523
12,GAAGGCGA,-0.0691
13,ATCATACC,0.259
14,GGCTACCC,-0.232
15,GGATCCGA,-0.234
16,GACATGTC,0.146
17,ATTATCTA,0.193
18,ACCCGGAC,-0.225
19,AAAAAACA,0.278
20,GTTATGCA,-0.141
21,AAGAAACG,0.151
22,TCAGTCGA,0.0379
23,CCTGAGAA,0.0927
24,CAGAGCGG,-0.117
25,CCTGCCTA,-0.116

row,Sequence,PBM E-score
1,AGTTGTTG,-0.0201
2,ATATACTA,0.157
3,CCCGTGTA,-0.194
4,ACCTCATC,0.218
5,CGGGCTTA,-0.0261
6,CGGACCCG,-0.233
7,GCTGCACC,-0.343
8,CGCATTAC,0.138
9,CTACCATC,-0.218
10,AGAGCTTA,-0.0282
11,ATCTCATA,0.0632
12,CCCGGAAC,-0.302
13,AACTGTAA,0.23
14,GAGGCCGC,-0.169
15,CGTTCGGC,-0.0488
16,CGTAACTA,0.303
17,AAAAGAGC,-0.0608
18,AGTATATC,0.0089
19,ATGTAGGA,-0.113
20,ATCGACAT,0.133
21,CGGTTTTC,0.0548
22,AATACTAT,0.064
23,CGCGGGGA,-0.153
24,ACCCGTAA,0.00565
25,CCCTCGAC,-0.166

row,Sequence,PBM E-score
1,GTACGTAC,0.0996
2,GTCATTCA,0.289
3,GCAAAACA,0.124
4,ATGACAAG,0.134
5,GAGCCTTA,-0.0126
6,GACTTGGC,-0.3
7,CGTCGGCC,-0.116
8,ACTTCTGC,0.0227
9,CATGACGC,0.455
10,ATTATGGG,-0.12
11,CAAGACCA,-0.261
12,ATAGAATA,0.214
13,AAGGAGGC,-0.155
14,GTCTGCTA,0.0394
15,CCCCCTCG,-0.4
16,AGAGATAC,0.0588
17,CAGGAGAG,-0.263
18,AGGGTGTC,-0.205
19,AGAGCAAA,-0.00698
20,CCAAGAGG,-0.192
21,AAGATATA,0.13
22,CTGCAACA,-0.0348
